# Measured values reported in the supplement of paper PMC9446081.
# Hit rate of the full screen: of about 39,000 compounds, about 220 (0.56%) showed activity. This is one part of the list.
# Test system: Escherichia coli K-12 BW25113
# Test: relative growth (OD600 normalised to plate interquartile mean) (fraction); higher = less growth inhibition, active = 0.2 or less
# Details: 50 µM; LB; incubation time: overnight (16-24 h)
# 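Note: static incubation at 37 °C against the wild-type strain, values averaged over two biological replicates.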
row,SMILES,relative growth
1,C[C@H](CO)N1C[C@H](C)[C@H](CN(C)C(=O)Nc2ccccc2)Oc2ccc(NC(=O)Cn3cnnn3)cc2CC1=O,inactive: 0.991
2,C[C@@H]1CN([C@@H](C)CO)C(=O)Cc2cc(NC(=O)NC3CCCCC3)ccc2O[C@@H]1CN(C)Cc1ccc(C(=O)Nc2ccccc2N)cc1,inactive: 1.02
3,COc1ccc([Si](C)(C)[C@@H]2[C@@H](CCn3cc([C@H](O)c4ccccc4)nn3)O[C@]3(C(=O)N(Cc4cccc(N5CCOC5=O)c4)c4ccccc43)[C@H]2C)cc1,inactive: 1.01
4,COC1C(O)CC(=O)OC(C)CC=CC=CC(O)C(C)CC(CC=O)C1OC1OC(C)C(OC2CC(C)(O)C(OC(=O)CC(C)C)C(C)O2)C(N(C)C)C1O (stereo unspecified) [KITASAMYCINS [A1 shown]],inactive: 0.385
5,COc1ccc(NC(=O)N(C)C[C@@H]2OCCCC[C@H](C)Oc3ccc(NS(=O)(=O)c4ccccc4)cc3C(=O)N([C@H](C)CO)C[C@H]2C)cc1,inactive: 1.04
6,CC(C)(C)[S@@](=O)N1Cc2cc(C(=O)NCc3ccc4c(c3)OCO4)nc(-c3cccc(-c4ccccc4)c3)c2[C@H]1CCO,inactive: 1.02
7,C[C@H]1CN([C@@H](C)CO)C(=O)Cc2cc(NC(=O)CCCCCC(=O)Nc3ccccc3N)ccc2O[C@@H]1CN(C)C(=O)Nc1cccc2ccccc12,inactive: 0.975
8,COC[C@@H](C)NC(=O)C1CN(C(C)=O)C1,inactive: 0.976
9,N[C@@H](CN(O)[N+][O-])C(=O)O,inactive: 0.979
10,C[C@@H]1CCCCO[C@@H](CN(C)S(=O)(=O)c2cccs2)[C@H](C)CN([C@H](C)CO)C(=O)c2cc(NC(=O)Nc3ccccc3)ccc2O1,inactive: 1.05
11,C[C@H](O)C#Cc1cnc2c(c1)C(=O)N([C@H](C)CO)C[C@@H](C)[C@H](CN(C)Cc1cncnc1)O2,inactive: 1
12,COc1ccc(CNC(=O)N(C)C[C@@H]2OCc3ccccc3-c3c(n(C)c4ccccc34)C(=O)N([C@H](C)CO)C[C@@H]2C)cc1,inactive: 1.02
13,CC(C)NC(=O)N(C)C[C@@H]1OCCCC[C@@H](C)Oc2ccc(NC(=O)C3CCCCC3)cc2C(=O)N([C@@H](C)CO)C[C@H]1C,inactive: 0.957
14,COc1ccc(S(=O)(=O)Nc2ccc3c(c2)CC(=O)N([C@H](C)CO)C[C@@H](C)[C@@H](CN(C)S(=O)(=O)c2ccc(F)cc2)O3)cc1,inactive: 1.01
15,COc1ccc(CNC(=O)C[C@H]2CC[C@@H]3[C@@H](COc4ccc(NC(=O)C(C)C)cc4C(=O)N3C)O2)cc1,inactive: 0.983
16,NNC(=O)c1ccccc1O,inactive: 0.978
17,COc1ccccc1CNC(=O)C[C@@H]1C[C@H]2c3cc(NC(=O)C4CCOCC4)ccc3O[C@H]2[C@@H](CO)O1,inactive: 1.01
18,COc1ccc(CN(C)C[C@H]2OCCCC[C@H](C)Oc3ccc(NC(=O)CCC(F)(F)F)cc3C(=O)N([C@H](C)CO)C[C@@H]2C)cc1,inactive: 1.01
19,Cc1ccc(S(=O)(=O)N(C)C[C@H]2OCCCC[C@@H](C)Oc3ccc(NC(=O)Cc4ccccc4)cc3C(=O)N([C@H](C)CO)C[C@@H]2C)cc1,inactive: 0.999
20,Cc1cccc(C)c1NC(=O)c1ccccc1C(=O)O,inactive: 0.975
21,C[C@@H]1COC(=O)[C@H](Cc2ccc(F)cc2)CC=CC[C@H](CC(=O)N(CCO)Cc2ccccc2)C(=O)N1,inactive: 1.02

row,SMILES,relative growth
1,C[C@@H]1CN([C@@H](C)CO)C(=O)c2cc(N(C)C)ccc2O[C@@H](C)CCCCO[C@@H]1CN(C)C(=O)CCCN(C)C,inactive: 1
2,C[C@@H]1CCCCO[C@H](CN(C)Cc2ccc3c(c2)OCO3)[C@H](C)CN([C@@H](C)CO)C(=O)c2cc(NC(=O)Nc3ccccc3)ccc2O1,inactive: 0.981
3,CNC[C@@H]1Oc2ccc(NS(=O)(=O)c3cn(C)cn3)cc2C(=O)N([C@@H](C)CO)C[C@H]1C,inactive: 1.02
4,C[C@@H]1CN([C@@H](C)CO)C(=O)c2cc(NS(=O)(=O)c3ccc(Cl)cc3)ccc2O[C@@H](C)CCCCO[C@@H]1CN(C)C(=O)Nc1ccc(F)cc1,inactive: 1.01
5,Nc1ccn2ccnc2c1,inactive: 1.01
6,COc1ccc2c3c1OC1CC(O)C=CC31CCN(C)C2 (stereo unspecified),inactive: 0.974
7,C[C@@H]1CN([C@@H](C)CO)C(=O)Cc2cc(NC(=O)Nc3cccc4ccccc34)ccc2O[C@H]1CN(C)C(=O)NC1CCCCC1,inactive: 1.01
8,COc1ccccc1C#Cc1cnc2c(c1)C(=O)N([C@H](C)CO)C[C@H](C)[C@H](CN(C)C(=O)c1ccc3c(c1)OCO3)O2,inactive: 1
9,CCC(=O)N(C)C[C@@H]1Oc2ncc(C#C[C@@H](C)O)cc2C(=O)N([C@H](C)CO)C[C@@H]1C,inactive: 1.01
10,C[C@@H]1CN([C@H](C)CO)C(=O)Cc2cc(NS(C)(=O)=O)ccc2O[C@H]1CN(C)S(=O)(=O)c1cccs1,inactive: 1.02
11,C#CCN(O[C@@H](/C=C/[C@@H](O)Cc1ccccc1)C1CC1)[C@@H](Cc1ccc(-n2cc(COc3ccccc3/C=C(C)/C=C/C(=O)NO)nn2)cc1)C(=O)OC,inactive: 1
12,C[C@@H]1CCCCO[C@@H](CN(C)C(=O)c2ccccc2)[C@@H](C)CN([C@H](C)CO)C(=O)c2cc(NC(=O)Nc3ccc(C(F)(F)F)cc3)ccc2O1,inactive: 1.02
13,COc1ccccc1NC(=O)N(C)C[C@@H]1Oc2ncc(C#CC(C)C)cc2C(=O)N([C@H](C)CO)C[C@H]1C,inactive: 1.02
14,COC1(NC(=O)C(C(=O)[O-])c2ccc(O)cc2)C(=O)N2C(C(=O)[O-])=C(CSc3nnnn3C)COC21.[Na+].[Na+] (stereo unspecified),active: 0.0483
15,CN(C)C(=O)C[C@@H]1CC[C@@H]2[C@H](COc3ccc(NS(=O)(=O)c4cccc(F)c4)cc3C(=O)N2C)O1,inactive: 0.993
16,COc1ccc(S(=O)(=O)Nc2ccc3c(c2)C(=O)N([C@@H](C)CO)C[C@H](C)[C@@H](CN(C)Cc2ccncc2)O3)cc1,inactive: 0.992
17,CCCCN1CNC(=S)NC1,inactive: 1.04
18,C[C@@H]1CN([C@@H](C)CO)C(=O)c2cc(NS(=O)(=O)c3cn(C)cn3)ccc2O[C@@H]1CN(C)CC1CC1,inactive: 0.97
19,C[C@@H]1CCCCO[C@@H](CN(C)C(=O)Nc2ccc3c(c2)OCO3)[C@H](C)CN([C@@H](C)CO)C(=O)c2cc(NC(=O)Nc3ccc(F)cc3)ccc2O1,inactive: 1.02
20,C[C@@H]1CN([C@H](C)CO)C(=O)Cc2cc(NC(=O)C3CCCCC3)ccc2O[C@@H]1CN(C)Cc1ccc(C(F)(F)F)cc1,inactive: 1.02
21,COc1ccc(NC(=O)Nc2ccc3c(c2)CC(=O)N([C@@H](C)CO)C[C@@H](C)[C@H](CN(C)C(=O)Nc2cccc4ccccc24)O3)cc1,inactive: 0.977

row,SMILES,relative growth
1,C[C@H]1CN([C@@H](C)CO)C(=O)Cc2cc(NC(=O)Cn3cnnn3)ccc2O[C@@H]1CN(C)Cc1ccncc1,inactive: 0.99
2,Cc1nc(=O)c2c([nH]1)CCSC2,inactive: 0.963
3,C[C@H](CO)N1C[C@H](C)[C@H](CN(C)Cc2ccc(C(=O)Nc3ccccc3N)cc2)Oc2ccc(NC(=O)CCC(F)(F)F)cc2C1=O,inactive: 0.998
4,CC(C)CNC(=O)[C@@]1(c2ccc([N+](=O)[O-])cc2)CC(=O)N(CC23CC4CC(CC(C4)C2)C3)[C@@H]1c1ccc(CO)cc1,inactive: 1.02
5,O=C(NCc1nc2ccccc2[nH]1)C1=C[C@H](c2csc3ccccc23)C[C@H](OCc2ccc(CO)cc2)O1,inactive: 0.993
6,CC(C)NC(=O)Nc1ccc2c(c1)C(=O)N([C@@H](C)CO)C[C@H](C)[C@H](CN(C)Cc1ccc(C(F)(F)F)cc1)OCCCC[C@H](C)O2,inactive: 1.01
7,CCCCN1C[C@H](O)[C@@H](O)[C@H](O)[C@H]1CO,inactive: 1.02
8,N[C@@H](C(=O)O)c1ccc(C(=O)O)c(C(=O)O)c1,inactive: 1.02
9,CO[C@@H]1CN(C)C(=O)c2cc(NS(C)(=O)=O)ccc2OC[C@H](C)N(S(C)(=O)=O)C[C@H]1C,inactive: 0.993
10,N=C(N)NC(=O)c1nc(Cl)c(N)nc1N,inactive: 0.988
11,Cn1ccc2ccc(CN)cc21,inactive: 0.985
12,C[C@H](CO)N1C[C@H](C)[C@H](CN(C)Cc2ccc3c(c2)OCO3)OCCCC[C@H](C)Oc2ccc(NC(=O)Cc3ccccc3)cc2C1=O,inactive: 1.01
13,CNC[C@@H]1Oc2c(NS(=O)(=O)c3cn(C)cn3)cccc2C(=O)N([C@@H](C)CO)C[C@H]1C,inactive: 0.999
14,C[C@H](CO)N1C[C@H](C)[C@H](CN(C)C(=O)Nc2ccccc2)OCCCC[C@H](C)Oc2ccc(NS(=O)(=O)c3ccc(Cl)cc3)cc2C1=O,inactive: 0.987
15,COc1ccc(S(=O)(=O)Nc2ccc3c(c2)C(=O)N([C@H](C)CO)C[C@H](C)[C@@H](CN(C)C(=O)Nc2c(C)noc2C)OCCCC[C@@H](C)O3)cc1,inactive: 0.992
16,C[C@@H]1CN([C@H](C)CO)C(=O)Cc2cc(N(C)C)ccc2O[C@@H]1CN(C)S(=O)(=O)c1cn(C)cn1,inactive: 0.989
17,COc1ccc(S(=O)(=O)N(C)C[C@H]2Oc3cc(C#CC4CC4)ccc3S(=O)(=O)N([C@H](C)CO)C[C@@H]2C)cc1,inactive: 1.04
18,C[C@H](CO)N1C[C@H](C)[C@@H](CN(C)Cc2ccc(C(=O)O)cc2)OCCCC[C@H](C)Oc2ccc(NS(=O)(=O)c3cccs3)cc2C1=O,inactive: 1.01
19,C[C@H]1CN([C@@H](C)CO)C(=O)Cc2cc(NC(=O)Nc3ccc(C(F)(F)F)cc3)ccc2O[C@@H]1CN(C)Cc1ccccc1,inactive: 0.99
